Source: the RNAGym collection of RNA variant scans (doi:10.7554/elife.90254)
The source gives no read counts; variants with many changes may rest on few reads.

B1: LINE1-mini (parent)
chain: GGCAGAGCUCAACACAGCGUGGCAAAGUGGCUGUGGCUAGACUGCC

Variants of: B1
Experiment: self-cleavage, relative activity (ratio to wild type); higher = more cleavage; in vitro, sequencing; the parent is a self-cleaving ribozyme

Variant	self-cleavage
GGCAGAGCUCAACACACGGUGGCAAAGUGGCUCUGGUUAGACUGCC	0.01
GGCAGAGCUCAACACAACGCUGCAAAGUGGCUGUGGCUAGACUGCC	0.18
GGCAGAGCUCAACACAACUUUGGUAAGUGGCUGUGGCUAGACUGCC	0.07
GGCAGAGCUCAACACAACGUGCCAAAGUGGCUGUGUCUAGACUGCC	0.18
GGCAGAGCUCAACACAACGUGGCAAAGUGGCUGUGGCUAUAAUGUC	0.1
GGCAGAGCUCAACACAACGUGCCAAAGUGCCUCUGGCUAGACUGUC	0.01
GGCAGAGCUCAACACACAGUGGCAAAGUCGCCGUGGCGAGACCGCC	0.06
GGCAGAGCUCAACACACCGUGGCAAAGUGGCUGUGGCUAGCCUGGC	0.03
GGCAGAGCUCAACACAACGUGGCAAAGUGGCUGUGGUUAUACUGCC	0.05
GGCAGAGCUCAACACAACGUGGCAAAGUGGCUGUGUCUAGACUGAC	0.15
GGCAGAGCUCAACACAACGUGGCAAAGUGGCUGUGUCUAGACUGGC	0
GGCAGAGCUCAACACAACGUGGCAAAGUAGCUGUGGCUAUACUGCC	0.04
GGCAGAGCUCAACACAACGUGGCAAAGUAGCUGUGGCUAAACUGCC	0.01
GGCAGAGCUCAACACAACGUGACAAAGUGGCUGUGGCUAGGCUGCC	0.03
GGCAGAGCUCAACACAACCUGGCAAAAUGGCUGUGGCUAGUCUGCC	0.39
GGCAGAGCUCAACACAACGUGGCAAAGUGGCUAUGGCUAGACUGUU	0.06
GGCAGAGCUCAACACAACGUUGCAAAGUGGCUGUGGCAAGACUCCC	0.02
GGCAGAGCUCAACACACCGUGGCAAUGUGGCUGUGGCUAGACAGCC	0.14
GGCAGAGCUCAACACAACUAGGCAAAGUGGCUGUGGCUAGACUGCC	1.12
GGCAGAGCUCAACACAACGUGGCAAAGUGGCUGUAGCUAGGCUGCC	0.03
GGCAGAGCUCAACACAACCUGGCAAAGUGGCUGUAGCUAGACUGCC	0.04
GGCAGAGCUCAACACAACGUGGCAAAGUGCCUGCGGCUACACUGCC	0.09
GGCAGAGCUCAACACAACGAGCCAAUGUGGCUGUGGCUAGACUGCC	0.02

Variant	self-cleavage
GGCAGAGCUCAACACAACGUGGCAAAGUAGCUGUGGAUAGACUGCC	0.19
GGCAGAGCUCAACACAACGUGGCAAAGUGGCUGUGGCUAGACCGCA	0.04
GGCAGAGCUCAACACACCGUGGCACAAUGGCUGUGGCUAGAUUGCC	0.11
GGCAGAGCUCAACACACCGUGGCGAAGUGGCUGUGGCUAGACUGCU	0.04
GGCAGAGCUCAACACAACGUAGCAAAGUGCCUGUGGCUAGACUGCC	0.07
GGCAGAGCUCAACACACCGUGGCAGAAUGGCUGUGGUUAGACUGCC	0.01
GGCAGAGCUCAACACAACGUGGCAAAGUUGCUGUGGCUAGAUUGUC	0.04
GGCAGAGCUCAACACAACGUGGCAAAGUGGCUGUAGCAAGACUGUC	0.02
GGCAGAGCUCAACACAACGUGACAAAGUCGCUGUGGCUAGACUGCC	0.31
GGCAGAGCUCAACACAACGUUGCAAAGUGGCUGAGGCUAGACUGCC	0.04
GGCAGAGCUCAACACAACCUGGCAAAGUGGCUCUGGCUAGACUGCC	0.03
GGCAGAGCUCAACACAACGUGGCAAAGUGGCUCUGGCUAGACUGCA	0
GGCAGAGCUCAACACAACGUGGCAAAGUGCCUGUGGGUAGACUGCC	0.05
GGCAGAGCUCAACACAACGUUGCAAAGUUGCUGUGGCUUGACUGCC	0.07
GGCAGAGCUCAACACACGGUGGCAAAGUGGCUGUGGCGAGACUGCC	0.06
GGCAGAGCUCAACACACCGUGGCAAUGUGGCUGUGGCUUGACUGCG	0.08
GGCAGAGCUCAACACAACCUGGCAAAGUGUUUGUGGCUAGACUGCC	0.2
GGCAGAGCUCAACACAACGUGGCAAAGUGGCUAUGGCGAGACUGGC	0.02
GGCAGAGCUCAACACACCGUGGCAGAGUGGCUGUUGCUAGACUGCC	0.06
GGCAGAGCUCAACACAACCUGGCAAAGUGGCCGUGGCUAGACUGCC	0.03
GGCAGAGCUCAACACAACGUGACAAAGUGGCUGUGGCUGGACUGCC	0.11
GGCAGAGCUCAACACACAGUGUCAAAGUGGCUGUGGCUAGACUGCC	0.27
GGCAGAGCUCAACACAACGUGGCAAAGGGGCUGCGGCUAGACUGCC	0.03

Variant	self-cleavage
GGCAGAGCUCAACACAACGAGGCAAAGUGGCUGUUGCUAGACUGCC	0.08
GGCAGAGCUCAACACAACGUCGCAGAGUGGCUGUGGCUACACUGCC	0.03
GGCAGAGCUCAACACAACCAGGCAAAGUGGCUGUGGCUAGACUGCC	0.37
GGCAGAGCUCAACACAACGUCGCAAAGUGGCUGUGUCUAGACUGCC	0.11
GGCAGAGCUCAACACAACGUGUAGAAGUGGCUGUGGCUAGACUGCC	0.07
GGCAGAGCUCAACACAACGUGGCAAAGUGGCUGUGACUAGUCUGCC	0.17
GGCAGAGCUCAACACAACGUGGCAAAGUGGCUGUUCCUAGACUGCC	0.05
GGCAGAGCUCAACACAACGUGGCAAAGUGGCUGUCCCUAGACCGCC	0.01
GGCAGAGCUCAACACAACAGGGCUAAGUGGAUGUGGCUAGACUGCU	0.02
GGCAGAGCUCAACACAACGUGGCAAAGUGGCUUUGGCUAGGCUGUC	0.09
GGCAGAGCUCAACACAACUUGGCAAAGUGACUGUGGCUAGACUUCC	0.07
GGCAGAGCUCAACACACCGUGGCAGAGGGGCUGUGGCUAGACUGCC	0.06
GGCAGAGCUCAACACAACGUGGCAAAGUGGCUCUGGCAAGACCGCC	0.03
GGCAGAGCUCAACACAACGUGGCAAAGUGGCAGUGGCUAAACGGCC	0.03
GGCAGAGCUCAACACAACAUGGCUAAGUGGCUGUGGCUAGACUGCC	2.2
GGCAGAGCUCAACACAACGUGGCAAAGUGGCUGUGGCUAGACUAUC	0.04
GGCAGAGCUCAACACACAGUGGCAAAGUAACUGUGGCUAGACUGCC	0.09
GGCAGAGCUCAACACACCGUGGCAGAGUGGCUUUGGCUUGACUGCC	0.04
GGCAGAGCUCAACACAACGUCGCAAAGUGGCUGUGGCUCGACUGCC	0.35
GGCAGAGCUCAACACAACGUACCAAAGUGGCUGUGGCUAGACUGCC	0.25
GGCAGAGCUCAACACAACGUGGCAAAGGGGCUGUGGCUAUACUGCC	0.11
GGCAGAGCUCAACACACCGUGGCAACAUGGCUGUGGCUAGACUGCC	0.37
GGCAGAGCUCAACACAACGCCGCAAAGUGGCUAUGGCUAGACAGGC	0.02

Variant	self-cleavage
GGCAGAGCUCAACACACCGUGGCCAAGUGGCAGUGGCUAGACUGCC	0.03
GGCAGAGCUCAACACAACGUGGCAAAGAGGCUAUGGCUAGACUGCC	0.04
GGCAGAGCUCAACACACCGUGGCAACGUGGCUGUGGCCAUACUUCC	0.07
GGCAGAGCUCAACACAACAUGGCAAAGUGGAUGUGGCUAGACUGCA	0.28
GGCAGAGCUCAACACAACGUGGCAAAGUGGCUGUCGCUAGACUACC	0.05
GGCAGAGCUCAACACAACGUGUCCAAGUGGCUGUGCCUAGACUGCC	0.02
GGCAGAGCUCAACACACCGUGGCACAGCGGCUGUGGCUAGACUGCC	0.16
GGCAGAGCUCAACACAACGUGGCAAAGUGACUGUGGCUAAACUGUC	0.05
GGCAGAGCUCAACACACCGUGGCGAAAUGGCCGUGGCUAGACUGCC	0.09
GGCAGAGCUCAACACAACGUGGCAAAGUGGCGGUGGCUAGACUCCC	0.02
GGCAGAGCUCAACACAACGAAGCAAAGUGGCUGUGGCUAGACUGCC	0.96
GGCAGAGCUCAACACACCGUGGCAGCGUGACUGUGUCUAGACUGCC	0.04
GGCAGAGCUCAACACAACGUGGCAAAGCGGCUGUUGCUAGAAUGCC	0.07
GGCAGAGCUCAACACAACGUGGCAAAGUGGCUAUGGAUAGACUGCC	0.01
GGCAGAGCUCAACACAACGUGGCAAAGUGGUUGUGACUAGACCGCC	0.32
GGCAGAGCUCAACACACCGUGGCUAAGUGGCUGUCGCUAGAAUGCC	0.02
GGCAGAGCUCAACACAACGCCGCAAGGUGUCUGUGGCUAGACUGCC	0.03
GGCAGAGCUCAACACAACAUGCCAAAGUGGCCGUGGCUAGACUGCC	0.03
GGCAGAGCUCAACACAACGGGGCAAAGGGGCUGUGGCUAGACUGCC	0.02
GGCAGAGCUCAACACAACGAGGCAAAGUGGCUGUGGAUAGACUGCC	0.05
GGCAGAGCUCAACACAACGGGGCCAAGUGGCUGUGGCUAGUCUGCC	0.02
GGCAGAGCUCAACACACUGUGGCAAAGUGGCUGUGGCUAGCCUGCC	0.03
GGCAGAGCUCAACACAACGAGACAAGGUGGCUGUGGCUAGACGGCC	0.13

Variant	self-cleavage
GGCAGAGCUCAACACAACGUGGCAAAGCGUCUGUGGCUAGCCUGCC	0.01
GGCAGAGCUCAACACAACUUGGCAAAGUGGCUGUAGCUUUACUGCC	0
GGCAGAGCUCAACACAACGUGGCAAAGUGGCUGGUGCAUGACUGCC	0.04
GGCAGAGCUCAACACACCGUGGCACAGUGGCUGUGGCUAAACUGCC	0.03
GGCAGAGCUCAACACAACGUGCCAAUGCGGCUGUGGCUAGACUGCC	1.27
GGCAGAGCUCAACACAACGUAUCAAAGUGGCUGUGGCUAGACUGCU	0.13
GGCAGAGCUCAACACAACGUGGCAAAGUGGCGGUGUCUAGACUGCC	0.01
GGCAGAGCUCAACACAACGUGGCAAAGUGGCUGUAGCUAGAGUGCC	0.01
GGCAGAGCUCAACACAACGUGGCAAAGUGGCUCUGGCUAGACCGCC	0.02
GGCAGAGCUCAACACACCGUGGCGAAGUGGCUGUGGUUAGACUGCC	0.08
GGCAGAGCUCAACACAACGUGGCAAAGUUGCUGUGGCUAGACAGCC	0.05
GGCAGAGCUCAACACAACGUGGCAAAGUGGCUGUAGCUAAACUGCC	0.03
GGCAGAGCUCAACACAACCUGGCAAAGUGGCUGUGGCUAGGCUGCC	0.5
GGCAGAGCUCAACACACCGUGGCGAAGUGGCUGUGGCUAGACUUCC	0
GGCAGAGCUCAACACAACGAGGCAAAGUGCCUGUGGCUAGACCGCC	0.04
GGCAGAGCUCAACACAACGGGGCAAAGUGGCUGAGUCUAGACUGCC	0.02
GGCAGAGCUCAACACAACGUGUUAAAGUGGCGGUGGCUCCACUGAC	0.01
GGCAGAGCUCAACACAACGUGGCAAAGUGGUUGCGGCUAGACUGCC	0.07
GGCAGAGCUCAACACAACGUGGCAAAGUUGCUGUGGCUAGACUGGC	0.02
GGCAGAGCUCAACACAACGUGGCAAACUGGCUGUGGCUGGACUGCC	0.07
